{"source": "PubChem BioAssay AID588342", "about": "(National Center for Advancing Translational Sciences (NCATS), 2011)", "note": "Several values for one entry are separate records, joined by “and”; a condition that tells them apart may be missing. Identical values can stand only once. About 25,000 (6.9%) of roughly 360,000 compounds were called active. The shares of active, inactive and inconclusive entries below differ from those in the screen. The call rests on the fitted dose curve; in most records, active means well fitted inhibition curve with a large enough effect; inconclusive means small, poorly fitted or top-dose-only effect; inactive means flat fitted curve, though single readings scatter. A potency beside an inconclusive call is a rough fit, not a confirmed value. Potency means the concentration at half of the fitted maximal effect; tags describe the fitted curve by direction and shape."}
{"molecular_target": "Luciferin 4-monooxygenase (Photinus pyralis) (UniProt P08659)", "sequence (P08659 whole entry, looked up)": "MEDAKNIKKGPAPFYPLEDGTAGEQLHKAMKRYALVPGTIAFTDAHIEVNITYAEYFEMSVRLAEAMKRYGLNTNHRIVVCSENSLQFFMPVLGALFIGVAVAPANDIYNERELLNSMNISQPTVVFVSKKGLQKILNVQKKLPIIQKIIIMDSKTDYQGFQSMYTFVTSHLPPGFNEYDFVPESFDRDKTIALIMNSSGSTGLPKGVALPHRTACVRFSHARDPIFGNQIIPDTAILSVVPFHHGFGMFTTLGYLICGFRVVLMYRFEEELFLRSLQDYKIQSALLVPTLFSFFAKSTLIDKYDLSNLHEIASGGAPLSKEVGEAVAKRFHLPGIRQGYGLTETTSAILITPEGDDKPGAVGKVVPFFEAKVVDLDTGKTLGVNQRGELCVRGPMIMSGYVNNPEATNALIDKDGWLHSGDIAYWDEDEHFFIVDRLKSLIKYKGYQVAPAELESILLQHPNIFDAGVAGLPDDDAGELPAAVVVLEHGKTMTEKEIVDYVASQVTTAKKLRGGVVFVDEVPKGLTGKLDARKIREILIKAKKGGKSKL", "assay": "qHTS profiling assay for firefly luciferase inhibitor/activator using purifed enzyme and Km concentrations of substrates (counterscreen for miR-21 project); further: nearly all actives have a fitted effect of over 55% in size", "details": "purified FLuc, luminescence inhibition; series mostly up to 57.5 µM", "method_in_brief": "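Biochemical qHTS of compounds, final roughly 60 µM downward over six points, against 10 nM purified firefly luciferase using Km concentrations of substrates (10 uM D-luciferin, 10 uM ATP) in Tris acetate pH 7.5 buffer; luminescence output.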"}
{"smiles": "CCCCCCOc1cccc(N)c1", "Potency": "inconclusive: 26.9 µM [inhibitor, single point]"}
{"smiles": "COc1ccc(CNC(=O)Cc2ccc(NC(=O)N3CCCCc4ccccc43)cc2)cc1", "Potency": "inconclusive: 21.3 µM [inhibitor, partial curve, poor fit]"}
{"smiles": "CC(C)CN(C(=O)COC(=O)c1cccnc1Cl)c1c(N)n(Cc2ccccc2)c(=O)[nH]c1=O", "Potency": "inactive"}
{"smiles": "CCCCOc1ccc(-c2nnn(CCC(=O)N3CCOCC3)n2)cc1", "Potency": "active: 12 µM"}
{"smiles": "CN(c1ccc(O)cc1)S(=O)(=O)c1ccc2ccccc2c1", "Potency": "active: 19 µM"}
{"smiles": "COc1ccc(Nc2cc(Nc3ccccc3)ncn2)cc1", "Potency": "inconclusive: 1.51 µM [inhibitor, full curve]"}
{"smiles": "COc1cc(/C=C2/NC(=O)NC2=O)cc(Br)c1OCc1cccc(C(=O)O)c1", "Potency": "inconclusive: 26.9 µM [inhibitor, partial curve, poor fit]"}
{"smiles": "COc1cc(OC)cc(C(=O)OCC(=O)c2cc(C)n(CC3CCCO3)c2C)c1", "note": "(stereo unspecified)", "Potency": "active: 6.75 µM"}
{"smiles": "CCCCC(=O)Nc1nnc(-c2ccc(OC)cc2)s1", "Potency": "inconclusive: 6.01 µM [inhibitor, partial curve]"}
{"smiles": "Cc1ccc(Sc2c(C)nn(-c3ccccc3)c2OC(=O)CC(C)C)cc1", "Potency": "inconclusive: 13.5 µM [inhibitor, partial curve]"}
{"smiles": "CC(=O)c1ccc(S(=O)(=O)Nc2cccc(-c3ccc(N4CCCC4)nn3)c2)cc1", "Potency": "active: 9.53 µM"}
{"smiles": "Cc1ccc(NC(=O)NCc2c(-n3cccc3)sc3c2CCCC3)c(Cl)c1", "Potency": "inactive"}
{"smiles": "CCOc1ccc(NC(=O)CSc2cn[nH]n2)cc1", "Potency": "inconclusive: 16.9 µM [inhibitor, partial curve]"}
{"smiles": "Cc1ccc(CNC(=O)CCCn2nc(C)n3c(cc4sccc43)c2=O)cc1", "Potency": "inactive"}
{"smiles": "Cc1cc2oc(=O)cc(CN3CCCCC3)c2cc1O", "Potency": "inconclusive: 37.9 µM [inhibitor, partial curve, poor fit]"}
{"smiles": "CC(=O)Nc1ccc(NC(=O)C(C)OC(=O)COc2ccc(Nc3ccccc3)cc2)cc1", "note": "(stereo unspecified)", "Potency": "inconclusive: 23.9 µM [inhibitor, single point]"}
{"smiles": "CCN(CC)c1cc(-c2ccccc2)ncn1", "Potency": "inconclusive: 21.3 µM [inhibitor, partial curve, poor fit]"}
{"smiles": "CCCCC(=O)Nc1ccc2c(c1)nc1n2CCOC1", "Potency": "inconclusive: 23.9 µM [inhibitor, partial curve, poor fit]"}
{"smiles": "COC(=O)c1[nH]c2cccc(OC)c2c1NC(=O)CN1CCN(c2cccc(OC)c2)C(C)C1", "note": "(stereo unspecified)", "Potency": "inactive"}
{"smiles": "CC(=O)C(Sc1nc(-c2ccccc2Cl)nc2c1c(=O)n(C)c(=O)n2C)C(=O)N(C)C", "note": "(stereo unspecified)", "Potency": "inactive"}
{"smiles": "COc1cc(CNC(=O)c2ccc3oc(C(C)C)nc3c2)cc(OC)c1", "Potency": "inactive"}
{"smiles": "c1ccc2c(c1)oc1c(N3CCOCC3)ncnc12", "Potency": "inconclusive: 37.9 µM [inhibitor, partial curve, poor fit]"}
{"smiles": "O=C(CCc1nnc2ccc(NCc3ccco3)nn12)Nc1ccc(F)cc1F", "Potency": "inactive"}
{"smiles": "Cc1cccc(N2CCN(C(=O)C3CCC(=O)N(C4CC4)C3)CC2)c1C", "note": "(stereo unspecified)", "Potency": "inactive"}
{"smiles": "CC1CC(=O)c2cnc(Nc3cccc(C(F)(F)F)c3)nc2C1", "note": "(stereo unspecified)", "Potency": "inconclusive: 37.9 µM [inhibitor, partial curve, poor fit]"}
{"smiles": "CN(C)/C=N/C(=S)Nc1ccc(F)cc1", "Potency": "inconclusive: 23.9 µM [inhibitor, partial curve, poor fit]"}
{"smiles": "Fc1ccc(-n2ncc3c(NCCCc4ccccc4)ncnc32)cc1", "Potency": "inconclusive: 26.9 µM [inhibitor, partial curve]"}
{"smiles": "CC(C)(C)C(=O)Nc1nnc(CSCc2ccccc2F)s1", "Potency": "inconclusive: 23.9 µM [inhibitor, single point]"}
{"smiles": "CCOC(=O)C1CCCN(C(=O)Cn2nc(C)n3nc(-c4ccccc4)cc3c2=O)C1", "note": "(stereo unspecified)", "Potency": "inactive"}
{"smiles": "Cc1nn(-c2ccc(N3CCCCC3)nn2)c(C)c1CCC(=O)Nc1cccc(F)c1", "Potency": "active: 6.75 µM and active: 4.78 µM"}
{"smiles": "O=C(COc1cccc2ccccc12)N/N=C/c1ccccc1OCc1ccc(C(=O)O)cc1", "Potency": "inconclusive: 30.1 µM [inhibitor, partial curve, poor fit]"}
{"smiles": "CCOC(=O)c1sc(=S)n(C)c1NC(=O)c1ccccc1", "Potency": "inconclusive: 21.3 µM [inhibitor, partial curve, poor fit]"}
{"smiles": "O=C(CCc1nnc2n(Cc3ccccc3Cl)c(=O)c3ccccc3n12)Nc1ccccc1", "Potency": "inactive"}
{"smiles": "CC(C)(C)c1ccc(OC(=O)Nc2ccc(O)c(C(=O)O)c2)cc1", "Potency": "active: 1.2 µM"}
{"smiles": "Nc1nc2ccccc2n1C(=O)CCc1ccccc1", "Potency": "inconclusive: 2.69 µM [inhibitor, full curve]"}
{"smiles": "CC1CN(C(=S)NC(=O)c2ccc([N+](=O)[O-])cc2)CC(C)O1", "note": "(stereo unspecified)", "Potency": "inactive"}
{"smiles": "CCc1ccc(S(=O)(=O)Nc2ccc3oc(C)c(C(=O)OCCOC)c3c2)cc1", "Potency": "inconclusive: 13.5 µM [inhibitor, partial curve]"}
{"smiles": "CCOC(=O)C1(Cc2cccc(OC)c2)CCCN(C(=O)c2cc(C)oc2C)C1", "note": "(stereo unspecified)", "Potency": "inconclusive: 15.1 µM [inhibitor, partial curve]"}
{"smiles": "c1ccc(CSc2nnc(-c3ccco3)o2)cc1", "Potency": "active: 16.9 µM"}
{"smiles": "Cc1ccc2nc(NC(=O)C(NS(=O)(=O)c3cccc4nsnc34)C(C)C)sc2c1", "note": "(stereo unspecified)", "Potency": "inactive"}
{"smiles": "O=C(Cc1ccccc1)Nc1nc(-c2ccc(F)c(F)c2)cs1", "Potency": "inconclusive: 13.5 µM [inhibitor, partial curve]"}
{"smiles": "COc1ccc(N(C)S(=O)(=O)c2ccc(Cl)c(C(=O)NNC(=O)c3ccccc3O)c2)cc1", "Potency": "inconclusive: 37.9 µM [inhibitor, partial curve, poor fit]"}
{"smiles": "COCCn1c(=O)c2c(nc3n2CC(C)CN3Cc2ccccc2)n(C)c1=O", "note": "(stereo unspecified)", "Potency": "inactive"}
{"smiles": "Cc1ccc(-c2noc(CNS(=O)(=O)c3ccccc3)n2)cc1", "Potency": "inconclusive: 37.9 µM [inhibitor, partial curve, poor fit]"}
{"smiles": "CCOC(=O)c1c(C)[nH]c(C(=O)OCC(=O)NC(C)C)c1C", "Potency": "inconclusive: 23.9 µM [inhibitor, partial curve, poor fit]"}
{"smiles": "Cc1ccc(N(CC(=O)Nc2ccccc2C(=O)NCc2ccco2)S(=O)(=O)c2ccccc2)cc1C", "Potency": "inactive"}
{"smiles": "c1ccn(-c2ccc(N3CCOCC3)cc2)c1", "Potency": "inconclusive: 21.3 µM [inhibitor, partial curve]"}
{"smiles": "CCOC(=O)Cc1c[nH]c(=S)[nH]c1=O", "Potency": "inactive"}
{"smiles": "O=C1CC(c2cccc(O)c2)Oc2ccccc21", "note": "(stereo unspecified)", "Potency": "inconclusive: 37.9 µM [inhibitor, partial curve, poor fit]"}
{"smiles": "Cc1ccc2c(c1)-c1onc(C(=O)N(C)c3ccc(F)cc3)c1CO2", "Potency": "inconclusive: 10.7 µM [inhibitor, partial curve]"}
{"smiles": "COC(=O)COc1ccc(-c2nccc(-c3ccc(Br)cc3)n2)cc1", "Potency": "inconclusive: 21.3 µM [inhibitor, single point]"}
{"smiles": "COc1cc(NC(=O)CN(C)S(=O)(=O)c2ccc3c(c2)CC(C)N3C(C)=O)cc(OC)c1", "note": "(stereo unspecified)", "Potency": "inactive"}
{"smiles": "COC(=O)CCSC(=S)N1CCOCC1", "Potency": "inconclusive: 37.9 µM [inhibitor, partial curve, poor fit]"}
{"smiles": "CCOC(=O)C1(Cc2ccc(OC)cc2)CCN(C(=O)c2ccc3[nH]ccc3c2)CC1", "Potency": "inconclusive: 37.9 µM [inhibitor, partial curve, poor fit]"}
{"smiles": "Cc1cccc(CC(=O)Nc2cccc(-c3cn4cccnc4n3)c2)c1", "Potency": "inconclusive: 37.9 µM [inhibitor, partial curve, poor fit]"}
{"smiles": "O=C(OCc1nc2ccccc2s1)c1ccccc1O", "Potency": "active: 8.49 µM"}
{"smiles": "COc1cc(/C=N/Nc2ccccc2C(F)(F)F)ccc1O", "Potency": "active: 13.5 µM"}
{"smiles": "CS(=O)(=O)c1ccc2nc(NC(=O)c3ccc(N4C(=O)CCC4=O)cc3)sc2c1", "Potency": "inconclusive: 23.9 µM [inhibitor, single point]"}
{"smiles": "CCN1C(=O)/C(=C2/C=Cc3ccccc3N2C)OC1=S", "Potency": "inconclusive: 2.69 µM [inhibitor, full curve]"}
{"smiles": "CCOC(=O)c1ccc(NC(=O)c2cc3ccccc3o2)cc1", "Potency": "active: 9.53 µM"}
{"smiles": "O=C(Oc1ccc2c(c1)OCO2)c1ccncc1", "Potency": "inconclusive: 30.1 µM [inhibitor, partial curve, poor fit]"}
{"smiles": "O=C(NC(=S)Nc1ccc(N2CCOCC2)cc1)c1ccccc1", "Potency": "inconclusive: 26.9 µM [inhibitor, partial curve, poor fit]"}
{"smiles": "O=C(c1cccnc1)N1CCCc2ccccc21", "Potency": "inactive"}
{"smiles": "CCOC(=O)/C(O)=C(\\C#N)c1nc2ccccc2[nH]1", "Potency": "inconclusive: 19 µM [inhibitor, single point]"}
{"smiles": "CCc1cc2c(=O)c(-c3cscn3)coc2cc1O", "Potency": "inconclusive: 2.69 µM [inhibitor, full curve]"}
{"smiles": "COc1ccc(CNC(=O)Cn2ccc(NC(=O)OCc3ccccc3)nc2=O)cc1", "Potency": "inactive"}
{"smiles": "CN(CCc1ccccn1)C(=O)Nc1ccc(Cl)cc1", "Potency": "inconclusive: 26.9 µM [inhibitor, partial curve, poor fit]"}
{"smiles": "Clc1cccc(/C(Cc2nc3ccccc3[nH]2)=N\\Nc2ccccc2)c1", "Potency": "inconclusive: 23.9 µM [inhibitor, single point]"}
{"smiles": "CCC(C(=O)OCC(=O)Nc1cc(Cl)cc(Cl)c1)c1ccccc1", "note": "(stereo unspecified)", "Potency": "inactive"}
{"smiles": "Cc1ccc(Nc2nc(-c3sc(NC(=O)c4ccc([N+](=O)[O-])cc4)nc3C)cs2)cc1", "Potency": "inconclusive: 9.53 µM [inhibitor, partial curve]"}
{"smiles": "O=C(NC(=S)Nc1ccc(N2CCOCC2)c(Cl)c1)c1cncc(Br)c1", "Potency": "inconclusive: 8.49 µM [inhibitor, partial curve, poor fit]"}
